# From the antibiotic and cytotoxicity screens of Wong et al. (2023)
# The list shows a part of the results.
# Experiments:
# HSkMC = human skeletal muscle cells; experiment: cytotoxicity call (relative viability < 0.9); conditions: 10 µM
# HepG2 = experiment: cytotoxicity call (relative viability < 0.9); conditions: 10 µM
# S. aureus RN4220 = experiment: growth inhibition call (relative growth <= 0.2); conditions: 50 µM
SMILES,cytotoxicity call (HSkMC),cytotoxicity call (HepG2),growth inhibition call (S. aureus RN4220)
COc1ccc(CNC(=O)C[C@@H]2CC[C@H]3[C@@H](COC[C@H](O)CN3S(=O)(=O)c3ccc(C)cc3)O2)cc1,inactive,inactive,inactive
C[C@H](CO)N1C[C@H](C)[C@@H](CN(C)C(=O)c2ccncc2)OCCCC[C@H](C)Oc2ccc(NC(=O)C3CCCCC3)cc2C1=O,inactive,inactive,inactive
C[C@H](CO)N1C[C@H](C)[C@@H](CN(C)CC2CCCCC2)OCCCC[C@H](C)Oc2ccc(N(C)C)cc2C1=O,inactive,inactive,inactive
C[C@@H]1CN([C@H](C)CO)S(=O)(=O)c2ccc(C#Cc3cccnc3)cc2O[C@@H]1CN(C)C(=O)Nc1ccc2c(c1)OCO2,inactive,inactive,inactive
CC(C)(Oc1ccc(C2CC2(Cl)Cl)cc1)C(=O)O (stereo unspecified),inactive,inactive,inactive
CN(C)C(=O)C[C@@H]1C=C[C@H](NC(=O)C2CCOCC2)[C@H](CO)O1,inactive,inactive,inactive
O=C(O)[C@H](O)[C@@H](O)C(=O)O,inactive,inactive,inactive
COc1ccc(C#Cc2cnc3c(c2)C(=O)N([C@@H](C)CO)C[C@H](C)[C@@H](CN(C)C(=O)CC2CC2)O3)cc1,inactive,inactive,inactive
COc1ccc(NC(=O)N(C)C[C@@H]2Oc3ccc(NC(=O)CCCN(C)C)cc3C(=O)N([C@@H](C)CO)C[C@@H]2C)cc1,inactive,inactive,inactive
Cc1cccc(S(=O)(=O)N2C[C@@H](O)COC[C@H]3O[C@H](CC(=O)NCCCN4CCOCC4)CC[C@@H]32)c1,inactive,inactive,inactive
Cc1ccc(S(=O)(=O)N(C)C[C@H]2Oc3ncc(-c4ccncc4)cc3C(=O)N([C@@H](C)CO)C[C@@H]2C)cc1,inactive,inactive,inactive
C[C@H]1CN([C@@H](C)CO)C(=O)Cc2cc(NC(=O)Nc3ccccc3)ccc2O[C@@H]1CN(C)Cc1ccc(C(F)(F)F)cc1,active,active,inactive
C=CC[C@H](CC(=O)N[C@@H](CO)Cc1ccccc1)C(=O)N[C@@H](COC(=O)[C@@H](CC=C)Cc1ccc(F)cc1)Cc1ccccc1,inactive,inactive,inactive
CC(C)CC#Cc1ccc2c(c1)O[C@H](CN(C)C(=O)Cc1ccccn1)[C@@H](C)CN([C@@H](C)CO)S2(=O)=O,inactive,inactive,inactive
O=C(C[C@H]1C=C[C@H](NC(=O)c2ccc(F)cc2)[C@H](CO)O1)NCc1ccncn1,inactive,inactive,inactive
C[C@@H]1CCCCO[C@@H](CN(C)C(=O)NC2CCCCC2)[C@H](C)CN([C@@H](C)CO)C(=O)c2cc(NS(=O)(=O)c3ccccc3)ccc2O1,inactive,active,inactive
C[C@H]1CN([C@@H](C)CO)C(=O)c2cccc(NC(=O)c3cnccn3)c2O[C@H]1CN(C)C(=O)Nc1ccc2c(c1)OCO2,inactive,inactive,inactive
COc1ccc(NC(=O)Nc2ccc3c(c2)C(=O)N([C@@H](C)CO)C[C@H](C)[C@@H](CN(C)Cc2ccc(C(F)(F)F)cc2)OCCCC[C@H](C)O3)cc1,inactive,inactive,inactive
C[C@H](CO)N1C[C@H](C)[C@H](CN(C)C(=O)Nc2ccc(F)cc2)OCc2ccccc2-c2c(n(C)c3ccccc23)C1=O,inactive,inactive,inactive

SMILES,cytotoxicity call (HSkMC),cytotoxicity call (HepG2),growth inhibition call (S. aureus RN4220)
C[C@H](CO)N1C[C@H](C)[C@H](CN(C)CC2CCCCC2)OCCCC[C@H](C)Oc2ccc(NC(=O)c3ccccc3)cc2C1=O,inactive,inactive,inactive
COCCCNC(=O)[C@@H]1c2ccccc2C(=O)N(Cc2cc(C(F)(F)F)cc(C(F)(F)F)c2)[C@H]1c1ccc(CO)cc1,inactive,inactive,inactive
Cc1noc(C)c1S(=O)(=O)Nc1ccc2c(c1)CC(=O)N([C@@H](C)CO)C[C@@H](C)[C@H](CN(C)S(=O)(=O)c1c(C)noc1C)O2,inactive,inactive,inactive
Nc1ccn([C@@H]2O[C@H](CO)[C@@H](O)C2(F)F)c(=O)n1,inactive,inactive,inactive
C[C@@H]1CCCCO[C@@H](CN(C)S(=O)(=O)c2ccc(Cl)cc2)[C@H](C)CN([C@@H](C)CO)C(=O)c2cc(NC(=O)Nc3ccc4c(c3)OCO4)ccc2O1,inactive,inactive,inactive
Cc1cc(C(=O)Nc2cccc3c2O[C@H](CN(C)S(=O)(=O)c2ccc(Cl)cc2)[C@@H](C)CN([C@@H](C)CO)C3=O)n(C)n1,inactive,inactive,inactive
O=C(C=Cc1ccccc1)c1ccc(O)cc1,inactive,active,inactive
C[C@H](CO)N1C[C@H](C)[C@@H](CN(C)Cc2ccncc2)Oc2ccc(NC(=O)CCCN(C)C)cc2CC1=O,inactive,inactive,inactive
Cc1noc(C)c1S(=O)(=O)Nc1ccc2c(c1)CC(=O)N([C@H](C)CO)C[C@H](C)[C@@H](CN(C)C(=O)Nc1ccccc1)O2,inactive,inactive,inactive
COc1cccc(NC(=O)N(C)C[C@@H]2Oc3cc(C#Cc4ccncc4)ccc3S(=O)(=O)N([C@@H](C)CO)C[C@H]2C)c1,inactive,active,inactive
C[C@H](CO)N1C[C@H](C)[C@H](CN(C)C(=O)CCC(F)(F)F)OCCCC[C@H](C)Oc2ccc(NC(=O)Cc3ccccc3)cc2C1=O,inactive,inactive,inactive
COc1ccc2c3c([nH]c2c1)[C@H](CO)N(C[C@]13CCN(CC1)CC1CCCC1)C(=O)Nc1cccc(c1)F,inactive,active,inactive
COc1ccc(S(=O)(=O)N(C)C[C@H]2Oc3ccc(NC(=O)Cn4cnnn4)cc3CC(=O)N([C@@H](C)CO)C[C@H]2C)cc1,inactive,inactive,inactive
N[C@@H](CCO)c1cccc(Cl)c1,inactive,inactive,inactive
CNC(=O)[C@H]1O[C@@H](n2cnc3c(NCc4cccc(I)c4)ncnc32)[C@H](O)[C@@H]1O,inactive,inactive,inactive
C[C@@H]1CN([C@@H](C)CO)C(=O)c2cccc(NC(=O)Nc3ccc(C(F)(F)F)cc3)c2O[C@H]1CN(C)Cc1ccccc1,active,inactive,inactive
C[C@@H]1CCCCO[C@H](CN(C)C(=O)CCCN(C)C)[C@H](C)CN([C@@H](C)CO)C(=O)c2cc(NC(=O)Nc3ccc(F)cc3)ccc2O1,inactive,inactive,inactive
Cn1cnc(S(=O)(=O)N2C[C@@H](O)COC[C@@H]3O[C@@H](CC(=O)N4CCN(c5ccccc5)CC4)CC[C@H]32)c1,inactive,inactive,inactive
CC(C)(Oc1ccc(CCNC(=O)c2ccc(Cl)cc2)cc1)C(=O)O,inactive,inactive,inactive

SMILES,cytotoxicity call (HSkMC),cytotoxicity call (HepG2),growth inhibition call (S. aureus RN4220)
Cc1c[nH]cnc1=O,inactive,inactive,inactive
CNC[C@H]1OCCCC[C@@H](C)Oc2ccc(NC(=O)CCCN(C)C)cc2C(=O)N([C@H](C)CO)C[C@@H]1C,inactive,inactive,inactive
CS(=O)(=O)N1[C@H](C(=O)O)[C@@H](CO)[C@@H]2Cn3c(ccc(-c4ccc(F)cc4)c3=O)[C@@H]21,inactive,inactive,inactive
CNC(=O)c1cccc(S(N)(=O)=O)c1,inactive,inactive,inactive
CN(C)CC(=O)N[C@H]1CC[C@H](CC(=O)NCCN2CCCCC2)O[C@@H]1CO,inactive,inactive,inactive
C[C@H](CO)N1C[C@H](C)[C@H](CN(C)Cc2ccc(Cl)c(Cl)c2)Oc2ccc(NC(=O)C3CCCCC3)cc2C1=O,inactive,inactive,inactive
O=C(CCCCCCC(=O)N/N=C/c1cc(I)cc(I)c1O)NO,active,inactive,inactive
CO[C@H]1O[C@H](COC(=O)NCCCCCC(=O)NO)[C@@H](OC(=O)c2ccccc2)[C@H](OC(=O)Nc2ccccc2-c2ccccc2)[C@@H]1OC(=O)Nc1ccccc1-c1ccccc1,inactive,active,inactive
Cc1noc(C)c1CC(=O)N1CCCC[C@@H]1CCOc1cccc(CN(C)Cc2cccc3cccnc23)c1,inactive,inactive,inactive
C[C@@H]1CCCCO[C@H](CN(C)S(=O)(=O)c2cccs2)[C@@H](C)CN([C@H](C)CO)C(=O)c2cc(NS(C)(=O)=O)ccc2O1,inactive,inactive,inactive
C[C@H](CO)N1C[C@H](C)[C@H](CN(C)C(=O)CCC(F)(F)F)OCCCC[C@H](C)Oc2ccc(NC(=O)C3CCCCC3)cc2C1=O,inactive,inactive,inactive
COc1ccc(NC(=O)N(C)C[C@@H]2Oc3c(NS(=O)(=O)c4cn(C)cn4)cccc3C(=O)N([C@@H](C)CO)C[C@@H]2C)cc1,inactive,inactive,inactive
C[C@H]1CN([C@@H](C)CO)C(=O)c2cccc(NS(=O)(=O)c3cn(C)cn3)c2O[C@@H]1CN(C)S(=O)(=O)c1cccs1,inactive,inactive,inactive
CCOC(=O)C1=C(C)NC(C)=C(C(=O)OC)C1c1cccc(Cl)c1Cl (stereo unspecified),inactive,inactive,inactive
C[C@@H]1CN([C@H](C)CO)C(=O)c2cccc(NS(=O)(=O)c3ccc(Cl)cc3)c2O[C@H]1CN(C)Cc1ccc(C(F)(F)F)cc1,inactive,inactive,inactive
Cc1cc(C(=O)Nc2cccc3c2O[C@H](CN(C)S(=O)(=O)c2cn(C)cn2)[C@H](C)CN([C@H](C)CO)C3=O)n(C)n1,inactive,inactive,inactive
Cl.Nc1ccc(N=Nc2ccccc2)c(N)n1,inactive,inactive,inactive
O=C(C[C@H]1C=C[C@H](NC(=O)CN2CCOCC2)[C@H](CO)O1)NCCc1ccncc1,inactive,inactive,inactive
CN1CCN(C(=O)C[C@H]2C[C@@H]3c4cc(NS(=O)(=O)c5ccc(F)cc5)ccc4O[C@@H]3[C@@H](CO)O2)CC1,inactive,inactive,inactive
